Inconclusive results are not listed. Certain results were filed several times, with different values. The list is limited to them. The source may hold further records. Results that share an entry are repeats in other runs, samples, wells, individuals or studies.
System: BDF1 mice, colon carcinoma 38 sc, T/C %
Test: NCI In Vivo Anticancer Drug Screen. Data for tumor model Colon Carcinoma 38 (subcutaneous) in B6D2F1 (BDF1) mice
Details: endpoint: median tumor weight (est.), higher = larger tumour
Method in brief: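 Transplantable tumor in mice; compound-treated vs vehicle-dosed controls. Measured survival or tumor size; value = T ÷ C.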

[1] = dose: 100.0 mg/kg/injection, schedule: Q07DX002 (ip), vehicle: Klucel (hydroxypropylcellulose) (HPC)
[2] = dose: 200.0 mg/kg/injection, schedule: Q07DX002 (ip), vehicle: Klucel (hydroxypropylcellulose) (HPC)
[3] = dose: 100.0 mg/kg/injection, schedule: Q07DX002 (ip), vehicle: saline with Tween-80
[4] = dose: 200.0 mg/kg/injection, schedule: Q07DX002 (ip), vehicle: saline with Tween-80
[5] = dose: 12.5 mg/kg/injection, schedule: Q07DX002 (ip), vehicle: saline with Tween-80
[6] = dose: 25.0 mg/kg/injection, schedule: Q07DX002 (ip), vehicle: saline with Tween-80
[7] = dose: 100.0 mg/kg/injection, schedule: Q07DX002 (ip), vehicle: saline
[8] = dose: 200.0 mg/kg/injection, schedule: Q07DX002 (ip), vehicle: saline
[9] = dose: 50.0 mg/kg/injection, schedule: Q07DX002 (ip), vehicle: saline
[10] = dose: 50.0 mg/kg/injection, schedule: Q07DX002 (ip), vehicle: Klucel (hydroxypropylcellulose) (HPC)
[11] = dose: 50.0 mg/kg/injection, schedule: Q07DX002 (ip), vehicle: saline with Tween-80
[12] = dose: 6.25 mg/kg/injection, schedule: Q07DX002 (ip), vehicle: saline with Tween-80
[13] = dose: 12.5 mg/kg/injection, schedule: Q07DX002 (ip), vehicle: Klucel (hydroxypropylcellulose) (HPC)
[14] = dose: 100.0 mg/kg/injection, schedule: Q07DX003 (ip), vehicle: Klucel (hydroxypropylcellulose) (HPC)

**Q.** Which T/C [1] does the source give for CSc1nc(=O)[nH]nc1SCc1ccccc1 here?
**A.** 124 % of control and 162 % of control

**Q.** And the T/C [2]?
**A.** 85 % of control and 167 % of control

**Q.** And the T/C (dose: 800.0 mg/kg/injection, schedule: Q07DX002 (ip), vehicle: Klucel (hydroxypropylcellulose) (HPC))?
**A.** 65 % of control and 176 % of control

**Q.** S=C(Nc1ccc(Cl)c(Cl)c1)N1c2ccccc2-n2cccc2C1c1cccnc1 (stereo not drawn) was tested. Which T/C [1] did it give?
**A.** 86 % of control and 154 % of control

**Q.** How did the T/C [3] turn out when CCCCn1cnc2c(=S)nc[nH]c21 was run?
**A.** 62 % of control and 88 % of control

**Q.** And the T/C [4]?
**A.** 35 % of control and 73 % of control

**Q.** For O=S1(=O)C=C(c2ccccc2)C(c2ccccc2)=C1, which T/C [5] is on record?
**A.** 28 % of control and 122 % of control

**Q.** And the T/C [6]?
**A.** 46 % of control and 76 % of control

**Q.** How did the T/C [5] turn out when Nc1ccc(C(OC(=O)c2cc3ccccc3c(Cc3c(O)c(C(=O)OC(c4ccc(N)cc4)(c4ccc(N)cc4)c4ccc(N)cc4)cc4ccccc34)c2O)(c2ccc(N)cc2)c2ccc(N)cc2)cc1 was run?
**A.** 88 % of control and 117 % of control

**Q.** CCC(c1ccc(OC(=O)Cc2ccc(N(CCCl)CCCl)cc2)cc1)C(CC)c1ccc(OC(=O)Cc2ccc(N(CCCl)CCCl)cc2)cc1 (stereo not drawn) was tested. Which T/C (dose: 150.0 mg/kg/injection, schedule: Q07DX002 (ip), vehicle: saline with Tween-80) did it give?
**A.** 60 % of control, 114 % of control, 187 % of control

**Q.** For CC1(C)OC(=O)N(CO)C1=O, which T/C [7] is on record?
**A.** 57 % of control and 226 % of control

**Q.** And the T/C [8]?
**A.** 75 % of control and 226 % of control

**Q.** What does the source list for Cc1c(N)nc(C(CC(N)=O)NCC(N)C(N)=O)nc1C(=O)NC(C(=O)NC(C)C(O)C(C)C(=O)NC(C(=O)NCCc1nc(-c2nc(C(=O)NCCCNCCCc3ccccn3)cs2)cs1)C(C)O)C(OC1OC(CO)C(O)C(O)C1OC1OC(CO)C(O)C(OC(N)=O)C1O)c1cnc[nH]1 (stereo not drawn)?
**A.** T/C (dose: 12.5 mg/kg/injection, schedule: Q07DX002 (ip), vehicle: saline): 44 % of control and 77 % of control; T/C [9]: 30 % of control and 62 % of control

**Q.** What does the source list for CCCCOCN(COCCCC)C(C)Cc1ccccc1 (stereo not drawn)?
**A.** T/C [3]: 28 % of control and 113 % of control; T/C [4]: 64 % of control and 104 % of control

**Q.** With O=C(Nc1ccccc1)c1c(O)[nH]c(=S)[nH]c1=O as the compound, how does the T/C (dose: 56.0 mg/kg/injection, schedule: Q07DX002 (ip), vehicle: saline with Tween-80) read?
**A.** 70 % of control and 120 % of control

**Q.** O=C(O)C1(NO)CCCCC1 was tested. Which T/C [1] did it give?
**A.** 60 % of control and 154 % of control

**Q.** And the T/C [2]?
**A.** 44 % of control and 101 % of control

**Q.** With C=C[Si]12OCCN(CCO1)CCO2 as the compound, how does the T/C [10] read?
**A.** 82 % of control and 113 % of control

**Q.** And the T/C (dose: 400.0 mg/kg/injection, schedule: Q07DX002 (ip), vehicle: Klucel (hydroxypropylcellulose) (HPC))?
**A.** 95 % of control and 167 % of control

**Q.** For C=CC(C)(C)n1cc(C2=C(O)C(=O)C(c3cn(C(C)(C)C=C)c4ccccc34)=C(O)C2=O)c2ccccc21, which T/C (dose: 20.0 mg/kg/injection, schedule: Q07DX002 (ip), vehicle: Klucel (hydroxypropylcellulose) (HPC)) is on record?
**A.** 58 % of control and 112 % of control

**Q.** And the T/C (dose: 40.0 mg/kg/injection, schedule: Q07DX002 (ip), vehicle: Klucel (hydroxypropylcellulose) (HPC))?
**A.** 77 % of control and 103 % of control

**Q.** With CCCN1COC(OCC)C(C)(C)C1 (stereo not drawn) as the compound, how does the T/C [11] read?
**A.** 52 % of control and 85 % of control

**Q.** What does the source list for O=C1OC(C(O)CO)C(O)=C1O (stereo not drawn)?
**A.** T/C [8]: 65 % of control and 164 % of control; T/C (dose: 400.0 mg/kg/injection, schedule: Q07DX002 (ip), vehicle: saline): 90 % of control and 155 % of control

**Q.** What does the source list for COc1cc([C@@H]2c3cc4c(cc3[C@@H](OC3OC5CO[C@@H](c6cccs6)OC5C(O)C3O)[C@H]3COC(=O)[C@H]23)OCO4)cc(OC)c1O (stereo partly drawn)?
**A.** T/C (dose: 8.0 mg/kg/injection, schedule: Q07DX002 (ip), vehicle: suspension in saline): 70 % of control and 111 % of control; T/C (dose: 16.0 mg/kg/injection, schedule: Q07DX002 (ip), vehicle: suspension in saline): 77 % of control and 115 % of control

**Q.** OCCCN1CCCCC1CO (stereo not drawn) was tested. Which T/C (dose: 800.0 mg/kg/injection, schedule: Q07DX002 (ip), vehicle: saline) did it give?
**A.** 86 % of control and 199 % of control

**Q.** Which T/C [3] does the source give for Clc1cc(Cl)c(C[N+]23CN4CN(CN(C4)C2)C3)cc1Cl here?
**A.** 56 % of control and 121 % of control

**Q.** What about the T/C [4] of the same compound?
**A.** 70 % of control and 106 % of control

**Q.** For COc1cc(C(=O)c2cc3c(cc2C)OCO3)cc(OC)c1OC, which T/C [1] is on record?
**A.** 65 % of control and 98 % of control

**Q.** How did the T/C (dose: 800.0 mg/kg/injection, schedule: Q07DX002 (ip), vehicle: saline with Tween-80) turn out when CC(=O)Oc1[nH]c(=O)c2cccc3c2c1CCC3 was run?
**A.** 70 % of control and 171 % of control

**Q.** How did the T/C [6] turn out when COc1cc(C(C)(C)C)cc(OC)c1C(O)(c1c(OC)cc(C(C)(C)C)cc1OC)c1c(OC)cc(C(C)(C)C)cc1OC was run?
**A.** 66 % of control and 103 % of control

**Q.** And the T/C [3]?
**A.** 54 % of control and 84 % of control

**Q.** For COc1ccc(S(=O)(=O)N/N=C/C(=O)O)cc1, which T/C [5] is on record?
**A.** 101 % of control and 164 % of control

**Q.** And the T/C [3]?
**A.** 77 % of control and 110 % of control

**Q.** For CNC(=O)ON(C(C)=O)C(=O)NC, which T/C [9] is on record?
**A.** 78 % of control and 120 % of control

**Q.** Which T/C [11] does the source give for C/C=C/C=C1/OC(C)=C(C(C)=O)C1=O here?
**A.** 48 % of control and 84 % of control

**Q.** What about the T/C [3] of the same compound?
**A.** 43 % of control, 93 % of control, 116 % of control

**Q.** C=C1C(=O)OCC1(C(=O)OCC)C(=O)OCC was tested. Which T/C (dose: 3.12 mg/kg/injection, schedule: Q07DX002 (ip), vehicle: saline with Tween-80) did it give?
**A.** 50 % of control and 86 % of control

**Q.** And the T/C [12]?
**A.** 55 % of control and 91 % of control

**Q.** What about the T/C [6] of the same compound?
**A.** 29 % of control and 123 % of control

**Q.** Which results are given for CCN(CC)CCOC(=O)Cc1cccc2c(=O)cc(-c3ccc(Cl)cc3)oc12?
**A.** T/C (dose: 25.0 mg/kg/injection, schedule: Q07DX002 (ip), vehicle: saline): 45 % of control and 71 % of control; T/C [9]: 45 % of control and 92 % of control; T/C [7]: 9 % of control and 43 % of control

**Q.** Cc1ccc(Cl)c2ccccc12 was tested. Which T/C [11] did it give?
**A.** 84 % of control and 152 % of control

**Q.** Cc1cnc(/C=N\NC(N)=S)c2cccc(N)c12 was tested. Which T/C [6] did it give?
**A.** 52 % of control and 97 % of control

**Q.** How did the T/C [13] turn out when CN(C)N=Nc1cn[nH]c1C(N)=O was run?
**A.** 72 % of control and 108 % of control

**Q.** Which results are given for Nc1nc(N)c2c(Cl)c(CNc3ccc(Cl)c(Cl)c3)ccc2n1?
**A.** T/C [12]: 69 % of control, 73 % of control, 115 % of control; T/C [6]: 45 % of control, 76 % of control, 77 % of control; T/C [11]: 24 % of control, 65 % of control, 80 % of control

**Q.** CCCCC(C)(C(=O)OCC)C(=O)OCC was tested. Which T/C (dose: 12.5 mg/kg/injection, schedule: Q07DX003 (ip), vehicle: Klucel (hydroxypropylcellulose) (HPC)) did it give?
**A.** 78 % of control and 116 % of control

**Q.** And the T/C (dose: 50.0 mg/kg/injection, schedule: Q07DX003 (ip), vehicle: Klucel (hydroxypropylcellulose) (HPC))?
**A.** 66 % of control and 92 % of control

**Q.** What about the T/C [14] of the same compound?
**A.** 66 % of control and 96 % of control

**Q.** Which T/C [14] does the source give for CC(=O)OCc1cc(=O)n(C)c2c3c4c(cc12)c(C)cc(=O)n4CO3 here?
**A.** 47 % of control and 85 % of control

**Q.** What does the source list for O=C/C(Cl)=C(/Cl)C(=O)O?
**A.** T/C (dose: 2.5 mg/kg/injection, schedule: Q07DX002 (ip), vehicle: saline with Tween-80): 68 % of control and 108 % of control; T/C (dose: 20.0 mg/kg/injection, schedule: Q07DX002 (ip), vehicle: saline with Tween-80): 49 % of control and 120 % of control

**Q.** With Nc1ncnc2c1nnn2C1OC(CO)C(O)C1O (stereo not drawn) as the compound, how does the T/C [13] read?
**A.** 71 % of control and 162 % of control

**Q.** And the T/C (dose: 25.0 mg/kg/injection, schedule: Q07DX002 (ip), vehicle: Klucel (hydroxypropylcellulose) (HPC))?
**A.** 85 % of control and 114 % of control

**Q.** And the T/C [10]?
**A.** 65 % of control and 268 % of control

**Q.** What about the T/C [1] of the same compound?
**A.** 50 % of control and 221 % of control

**Q.** What about the T/C [2] of the same compound?
**A.** 54 % of control and 171 % of control

**Q.** With Cc1cc2nc3c(=O)[nH]c(=O)nc-3n(CC(O)C(O)C(O)C(O)CO)c2cc1C (stereo not drawn) as the compound, how does the T/C (dose: 50.0 mg/kg/injection, schedule: Q07DX002 (ip), vehicle: suspension in saline) read?
**A.** 66 % of control and 107 % of control

**Q.** And the T/C (dose: 200.0 mg/kg/injection, schedule: Q07DX002 (ip), vehicle: suspension in saline)?
**A.** 82 % of control and 115 % of control

**Q.** And the T/C (dose: 400.0 mg/kg/injection, schedule: Q07DX002 (ip), vehicle: suspension in saline)?
**A.** 75 % of control and 108 % of control

**Q.** With CS(C)=O as the compound, how does the T/C (dose: 3.0 grams/kg/injection, schedule: Q07DX003 (ip), vehicle: saline) read?
**A.** 83 % of control and 120 % of control

**Q.** CCCCN(CCCC)C(Cl)=Nc1ccccc1 was tested. Which T/C [1] did it give?
**A.** 71 % of control and 102 % of control

Reference: PubChem BioAssay AID212 (DTP/NCI, 2004)
